± gives the uncertainty stated by the source. The sequences are guide strands of siRNAs; only the seed at positions 2 to 7 varies.
Key:
HeyA8 = assay: cell viability relative to lipid-only control; higher = less toxic; details: concentration: 10 nM; 96 h; Homo sapiens
Method: (§1)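 Arrayed screen of 4096 siRNA duplexes, each carrying one of all possible 6mer seeds at guide-strand positions 2-7 in a fixed neutral 19mer scaffold (constant flanks: U at position 1, then ACAUGUAAACCA, plus a 3' AA overhang). The passenger strand is 2'-O-methylated at positions 1-2 so only the guide strand loads into RISC. Duplexes were reverse-transfected at 10 nM with RNAiMAX in triplicate in 384-well plates; viability was read by CellTiter-Glo ATP content 96 h after transfection. Values are % viability normalised to lipid-only wells (HeyA8, H460, M565) or to siNT1 (3LL).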

M565 = assay: as above; details: concentration: 10 nM; 96 h; Mus musculus
Method: as §1

H460 = assay: as above; details: concentration: 10 nM; 96 h; Homo sapiens
Method: as §1

3LL = assay: cell viability relative to siNT1 control; HeyA8 human ovarian and H460 human lung cancer; M565 mouse liver and 3LL mouse lung cancer; siNT1 is a non-toxic control siRNA; higher = less toxic; details: concentration: 10 nM; 96 h; Mus musculus
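For cell viability relative to lipid-only control in this document: reverse lipid transfection in 384-well plates, in triplicate, of duplexes on a non-toxic 19mer backbone with passenger strand 2′-O-methylated at positions 1 and 2, luminescence viability read-out.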
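For cell viability relative to siNT1 control in this document: Luminescence-based viability of cells reverse transfected in 384-well plates with lipid-complexed siRNAs built on a non-toxic 19mer backbone whose passenger strand carries 2′-O-methyl groups at positions 1 and 2, triplicates.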

Sequence | cell viability (HeyA8) | cell viability (M565) | cell viability (H460) | cell viability (3LL)
UCACUUCACAUGUAAACCAAA | 27.5 ± 2.3% | 41.1 ± 11% | 32.5 ± 2.4% | 93.6 ± 13%
UCACUUGACAUGUAAACCAAA | 76.6 ± 4.8% | 55.2 ± 10% | 42.3 ± 5.8% | 92.7 ± 11%
UCACUUUACAUGUAAACCAAA | 64.8 ± 5.8% | 88.5 ± 1.6% | 37.3 ± 5.7% | 97.6 ± 17%
UCAGAAAACAUGUAAACCAAA | 79.7 ± 8.8% | 66 ± 10% | 54.2 ± 3.2% | 90.4 ± 12%
UCAGAACACAUGUAAACCAAA | 30.4 ± 2.5% | 42.9 ± 1.8% | 63.6 ± 15% | 87.9 ± 5.4%
UCAGAAGACAUGUAAACCAAA | 91.2 ± 3.2% | 57.1 ± 11% | 66.6 ± 13% | 92.9 ± 17%
UCAGAAUACAUGUAAACCAAA | 60.6 ± 4.8% | 50.1 ± 4% | 56.1 ± 8.3% | 93.6 ± 15%
UCAGACAACAUGUAAACCAAA | 97.6 ± 1.5% | 69.8 ± 8.5% | 60.5 ± 6.8% | 95.6 ± 20%
UCAGACCACAUGUAAACCAAA | 63.1 ± 1.6% | 31.9 ± 7.7% | 31.2 ± 5.5% | 85.7 ± 22%
UCAGACGACAUGUAAACCAAA | 83.3 ± 7.1% | 56.6 ± 2% | 56.6 ± 4.6% | 96.5 ± 15%
UCAGACUACAUGUAAACCAAA | 82.1 ± 6.9% | 55.3 ± 8% | 44 ± 15% | 93.9 ± 8.4%
UCAGAGAACAUGUAAACCAAA | 76.9 ± 7.3% | 44.3 ± 2% | 42.7 ± 4.1% | 96.3 ± 14%
UCAGAGCACAUGUAAACCAAA | 67.8 ± 2% | 59.6 ± 1.2% | 50.7 ± 2.7% | 41.9 ± 13%
UCAGAGGACAUGUAAACCAAA | 59.3 ± 3% | 22 ± 1.5% | 40.7 ± 2.9% | 97.4 ± 18%
UCAGAGUACAUGUAAACCAAA | 55 ± 7.3% | 29.4 ± 7.5% | 54.7 ± 9.5% | 92 ± 10%
UCAGAUAACAUGUAAACCAAA | 90.3 ± 6.1% | 66.8 ± 5.4% | 67.3 ± 1.4% | 95.9 ± 17%
UCAGAUCACAUGUAAACCAAA | 45.7 ± 7% | 28.3 ± 2.2% | 38.2 ± 1.6% | 93.6 ± 18%
UCAGAUGACAUGUAAACCAAA | 88 ± 10% | 59.2 ± 2.8% | 50.2 ± 3% | 96.7 ± 17%
UCAGAUUACAUGUAAACCAAA | 87.8 ± 6.9% | 49.5 ± 8.5% | 59.1 ± 7.8% | 90.6 ± 23%
UCAGCAAACAUGUAAACCAAA | 86.2 ± 5.4% | 70.7 ± 12% | 63.4 ± 3.6% | 95.1 ± 12%
UCAGCACACAUGUAAACCAAA | 74.6 ± 5.8% | 23.8 ± 1.1% | 51.1 ± 1.9% | 67.2 ± 21%
UCAGCAGACAUGUAAACCAAA | 78.1 ± 1.5% | 41.1 ± 6.3% | 59.2 ± 3.2% | 88.9 ± 19%
UCAGCAUACAUGUAAACCAAA | 82.2 ± 3.3% | 57.9 ± 6% | 58.6 ± 4.2% | 94.1 ± 19%
UCAGCCAACAUGUAAACCAAA | 84.3 ± 3.5% | 57.8 ± 7% | 57.8 ± 3.6% | 93.1 ± 12%
UCAGCCCACAUGUAAACCAAA | 55.5 ± 0.82% | 10.4 ± 4.7% | 30.5 ± 5.8% | 41.4 ± 7.6%
UCAGCCGACAUGUAAACCAAA | 89.2 ± 9% | 50.3 ± 9% | 44.4 ± 5.2% | 77.3 ± 20%
UCAGCCUACAUGUAAACCAAA | 62.4 ± 2.8% | 61.7 ± 5.1% | 43.1 ± 3.2% | 72.7 ± 13%
UCAGCGAACAUGUAAACCAAA | 77.8 ± 14% | 75.5 ± 2.9% | 74.1 ± 5.8% | 99.4 ± 18%
UCAGCGCACAUGUAAACCAAA | 68.1 ± 3.6% | 46.8 ± 4.2% | 56.3 ± 8.5% | 70.1 ± 12%
